# Assay results published in PMC4336329 (PLoS ONE, 2015).
# Hit rate of the full screen: of about 310,000 compounds, about 2,200 (0.71%) showed an effect of 50% or more. The effect is printed as a negative number. The list shows a part of the results.
# Biological target: human ether-à-go-go-related gene (hERG) potassium channel (human, UniProt Q12809)
# Assay: primary screen, population patch clamp on CHO cells stably expressing hERG
# human ether-à-go-go-related gene (hERG) potassium channel, sequence (Q12809 whole entry, looked up): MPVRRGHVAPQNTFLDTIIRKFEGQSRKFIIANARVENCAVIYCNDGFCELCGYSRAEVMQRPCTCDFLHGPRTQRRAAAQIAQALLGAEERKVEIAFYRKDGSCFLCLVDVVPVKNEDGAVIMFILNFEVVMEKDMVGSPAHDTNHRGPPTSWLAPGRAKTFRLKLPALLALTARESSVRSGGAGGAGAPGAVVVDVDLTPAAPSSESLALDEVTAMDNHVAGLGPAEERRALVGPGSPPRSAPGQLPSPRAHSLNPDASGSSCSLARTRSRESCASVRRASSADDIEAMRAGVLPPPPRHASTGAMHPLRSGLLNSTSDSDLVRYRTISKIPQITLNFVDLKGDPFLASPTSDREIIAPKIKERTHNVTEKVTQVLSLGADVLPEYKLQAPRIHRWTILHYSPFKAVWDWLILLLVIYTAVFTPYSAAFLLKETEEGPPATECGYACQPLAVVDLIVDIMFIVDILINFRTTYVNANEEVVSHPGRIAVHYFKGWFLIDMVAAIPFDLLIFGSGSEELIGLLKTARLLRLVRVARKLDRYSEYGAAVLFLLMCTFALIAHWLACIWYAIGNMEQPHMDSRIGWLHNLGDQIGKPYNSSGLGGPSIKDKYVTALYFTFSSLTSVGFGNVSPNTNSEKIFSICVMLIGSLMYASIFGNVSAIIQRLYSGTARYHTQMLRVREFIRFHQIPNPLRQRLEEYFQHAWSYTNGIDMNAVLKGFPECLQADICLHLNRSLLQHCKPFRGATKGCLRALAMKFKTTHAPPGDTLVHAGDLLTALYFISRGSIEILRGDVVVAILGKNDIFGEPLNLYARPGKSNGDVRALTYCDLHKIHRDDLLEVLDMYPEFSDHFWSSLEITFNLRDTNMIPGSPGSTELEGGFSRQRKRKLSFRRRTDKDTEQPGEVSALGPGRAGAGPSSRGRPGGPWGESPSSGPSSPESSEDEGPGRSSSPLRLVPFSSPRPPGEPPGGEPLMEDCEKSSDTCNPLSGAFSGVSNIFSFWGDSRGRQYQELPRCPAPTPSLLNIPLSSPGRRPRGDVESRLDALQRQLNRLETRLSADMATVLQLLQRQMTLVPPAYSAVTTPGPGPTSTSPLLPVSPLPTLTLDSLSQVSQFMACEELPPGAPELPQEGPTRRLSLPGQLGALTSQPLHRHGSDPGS
row,Compound,"hERG current change (%, negative = inhibition) at 1uM [%]"
1,CCC(C)N(CCNC(=O)c1ccc(NC2=NC3CS(=O)(=O)CC3S2)cc1)Cc1ccco1 (stereo not shown),-7.91
2,S=c1[nH]c2ncccc2o1,-18.9
3,CCOc1ccc(OC(=O)c2ccc3c(=O)n4c(nc3c2)CCC4)cc1,4.54
4,COc1ccc(-c2nnn(CC(=O)N(CCN3CCOCC3)C(C(=O)NC3CCCC3)c3ccco3)n2)cc1 (stereo not shown),-1.93
5,CC(=O)NCCC1CCN(C(=O)C2CCC(=O)N(C3CCCC3)C2)CC1 (stereo not shown),14.9
6,Nc1c(-c2ccccc2)c(CSc2nc3ccccc3[nH]2)nn1-c1cccc(Cl)c1,9.65
7,COc1ccc(OCCNC(=O)/C=C/c2ccc([N+](=O)[O-])cc2)cc1,-59.9
8,COc1ccc(CCNC(=O)Cn2cccc2C(=O)c2ccccc2)cc1OC,16
9,COC(=O)[C@]1(C)CCC[C@@]2(C)C3CC[C@@]4(C)C[C@]3(CCC21)CC4=NO (stereo partly shown),-2.03
10,Cc1ccc(C(=O)Nc2nnc(-c3ccncc3)o2)cc1,-0.2
11,CCc1noc(C)c1C(=O)N1CCN(S(=O)(=O)c2ccc(Br)cc2Cl)CC1,6.27
12,CC(NC(=O)c1cc(S(=O)(=O)N2CCOCC2)ccc1N1CCCC1)c1ccc(Cl)c(Cl)c1 (stereo not shown),9.83
13,O=C(Nc1ccnn1C1CCN(Cc2cccc(OCCO)c2)CC1)C1CCOC1 (stereo not shown),2.06
14,COc1cc(Cl)ccc1NC(=S)N(CCCN1CCOCC1)Cc1cn(C)c2ccccc12,4.08
15,Cc1ccc(S(=O)(=O)N2CCCCC2)cc1NC(=O)Nc1ccc(Cl)cc1Cl,13.2
16,Cc1ccc(C)c(C2C(=O)c3ccccc3C2=O)c1,-0.022
17,COCc1n[nH]c(=S)n1-c1ccccc1,12.1
18,CCc1nn(C(CC)C(=O)NCc2cccs2)c(=O)c2cc3occc3n12 (stereo not shown),4.67
19,CCN(CC(=O)Nc1cc(Cl)ccc1C)C(=O)c1ccc2c(c1)NC(=O)C(C)S2 (stereo not shown),-1.02
20,O=C(O)CCCN1C(=O)C(=O)/C(=C(/O)c2ccccc2)C1/C=C/c1ccccc1 (stereo not shown),1.2
21,O=C(N/C(=C/c1ccc(Br)cc1)C(=O)N1CCOCC1)c1cccs1,7.16
22,Cc1ccc(C(=O)N/C(=C/c2ccco2)C(=O)Nc2cccc(C(=O)O)c2)cc1,14
23,Cc1cccc(NC(=O)Cn2cnc(S(=O)(=O)N3CCCC3)c2)c1C,13.8
24,CC1CCN(C(=O)C2CC(c3ccc(F)cc3)=NO2)CC1 (stereo not shown),-5.77
25,Cc1ccc(NC2=NCC(=O)N2C2CCCC2)cc1C.Cl,17.4
26,COc1ccc(C(=O)c2ccc(Br)cc2)c2ccccc12,0.857
27,NC(=O)C[n+]1cccc(CNC(=O)c2ccc(OC(F)F)cc2)c1.[Cl-],4.72
28,O=C(CSc1nnc(-c2cccnc2)n1C1CCCCC1)NC1CCCCC1,-6.66

row,Compound,"hERG current change (%, negative = inhibition) at 1uM [%]"
1,O=C(C1CCC1)N1CCN(c2ccc(Cl)cc2)CC1,6.35
2,CC(=O)Nc1c(C(=O)c2ccccc2)oc2ccccc12,-1.57
3,COc1cc(N)ccc1Cc1ccc(N)cc1OC,7.93
4,COc1cccc(NC(=O)c2oc3ccccc3c2NC(C)=O)c1,4.26
5,CC1=C(C(=O)OCC2CCCO2)C(c2ccncc2)C2=C(CC(C)(C)CC2=O)N1 (stereo not shown),1.85
6,Cc1c(C)n(C)c2ccc(C(=O)NCCN3CCOCC3)cc12,16.3
7,O=c1/c(=C/c2ccco2)sc2n1CN(c1cccc(Br)c1)CN=2,12.4
8,CCc1ccc(N(C(=O)Cn2nnc(-c3ccccc3)n2)C(C(=O)NC2CCCCC2)c2ccccn2)cc1 (stereo not shown),8
9,COc1ccc(C)cc1S(=O)(=O)N1CCN(C(=O)c2ncoc2-c2ccccc2F)CC1,14.7
10,CCCn1c(=O)c2sccc2n2c(CCCC(=O)NCc3ccco3)nnc12,7.9
11,Cc1ccc(NC(=O)C2CC(=O)OC23CCOC(C)(C)C3)cc1 (stereo not shown),-0.054
12,O=C(Cn1c(=O)n(CCc2c[nH]c3ccccc23)c(=O)c2cccnc21)Nc1ccccc1F,7.99
13,C#CCN1CCN(c2cccc(C(F)(F)F)c2)CC1,-3.97
14,CN(Cc1ccc(F)cc1)Cc1nc(CCc2ccccc2)no1,3.55
15,COc1ccc(Oc2nc(SC)nc3ccsc23)cc1,15.3
16,CCOC(=O)CCC(=O)Nc1cc(S(=O)(=O)N2CCOCC2)ccc1N1CCCCC1,-3.23
17,CC(=O)Nc1cccc(C(=O)Nc2cccc(S(=O)(=O)NCc3ccco3)c2)c1,2.38
18,CC(=O)Nc1ccc(NC(=O)C(C)OC(=O)CCCN2C(=O)c3cccc4cccc(c34)C2=O)cc1 (stereo not shown),8.12
19,O=C(CCC1COc2ccccc2O1)Nc1cccnc1 (stereo not shown),5.48
20,COC(=O)CNC(=O)c1cccs1,12.5
21,CCn1c(C)cc(O)c(C(=O)Nc2cccc(Cl)c2)c1=O,15.4
22,CCOC(=O)N1CCC(N2Cc3cccc(C(=O)NCC4CCN(CC(C)C)C4)c3C2=O)CC1 (stereo not shown),2.3
23,COc1ccccc1NC(=O)CSc1nc2ccccc2c(=O)n1C,6.28
24,CC(c1ccccc1)n1c(SCC(=O)N2CC(=O)Nc3ccccc32)nc2ccccc2c1=O (stereo not shown),15.3
25,C/C(=N/NC(=O)CNC(=O)COc1cccc(C)c1)c1ccco1,9.72
26,O=C(O)CCC(=O)Nc1ccc(Sc2ccc([N+](=O)[O-])cc2)cc1,-7.42
27,CCCCCCC(=O)N1C/C=C\C(c2ccc(OC)cc2)N(Cc2ccc(F)cc2)C(=O)C1 (stereo not shown),1.71
